Measured values: the supplement of paper PMC9174493
The other results are listed elsewhere or left out. Single values of this set are uncertain. Values with irradiation are relative to irradiated vehicle.

Experiments:
[1] = test system: A549-Dual; test: NF-kB reporter (SEAP) activity, viability-corrected, relative to vehicle (fold change vs vehicle); higher = more activation of STING-IRF / NF-kB immune response reporter; conditions: 10 µM
[2] = test system: A549-Dual; test: ISRE reporter (Lucia luciferase) activity, viability-corrected, relative to vehicle (fold change vs vehicle); higher = more activation of STING-IRF / NF-kB immune response reporter; conditions: 10 µM
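Throughout, for NF-kB reporter (SEAP) activity, viability-corrected, relative to vehicle: viability correction based on the alamar blue assay, with concentrations leaving 10% survival or less dropped.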

Compound | NF-kB reporter ([1]; irradiation: 8 Gy/4 fr) | NF-kB reporter ([1]; irradiation: none) | ISRE reporter ([2]; irradiation: 8 Gy/4 fr) | ISRE reporter ([2]; irradiation: none)
CCCCCCCCC(=O)O [Nonanoic acid] | 0.766 | 0.914 | 0.703 | 0.814
Cc1onc(-c2c(Cl)cccc2Cl)c1C(=O)NC1C(=O)N2C1SC(C)(C)C2C(=O)[O][Na].O (stereo not drawn) [Dicloxacillin Sodium] | 0.817 | 1.03 | 0.822 | 0.888
C[S+](CCC(N)C(=O)[O-])CC1OC(n2cnc3c(N)ncnc32)C(O)C1O.Cc1ccc(S(=O)(=O)O)cc1.O=S(=O)(O)O.O=S(=O)(O)O (stereo not drawn) [Ademetionine disulfate tosylate] | 0.97 | 0.784 | 0.261 | 0.362
CC(=O)Oc1cc(C(C)C)c(OCCN(C)C)cc1C.Cl [Moxisylyte hydrochloride] | 0.771 | 1.17 | 0.814 | 0.726
CCC1=C(C)CN(C(=O)NCCc2ccc(S(=O)(=O)NC(=O)NC3CCC(C)CC3)cc2)C1=O (stereo not drawn) [Glimepiride] | 0.757 | 0.867 | 0.767 | 0.844
NCC1OC(OC2C(N)CC(N)C(OC3OC(CO)C(O)C(N)C3O)C2O)C(N)CC1O.NCC1OC(OC2C(N)CC(N)C(OC3OC(CO)C(O)C(N)C3O)C2O)C(N)CC1O.O=S(=O)(O)O.O=S(=O)(O)O.O=S(=O)(O)O.O=S(=O)(O)O.O=S(=O)(O)O (stereo not drawn) [Tobramycin sulfate] | 0.932 | 0.722 | 0.864 | 0.658
CCCCC(C)C(=O)O (stereo not drawn) [2-Methylhexanoic acid] | 1.16 | 0.974 | 1.43 | 0.842
O=Cc1ccc(CO)o1 [5-Hydroxymethylfurfural] | 0.968 | 0.824 | 0.777 | 0.681
CC(O)C(=O)O.CCOc1ccc2nc3cc(N)ccc3c(N)c2c1.O [Ethacridine lactate monohydrate] | 1.08 | 1.93 | 0.375 | 2.43
Oc1ccc(O)cc1 [Hydroquinone] | 1.38 | 0.858 | 1.38 | 0.713
O=c1[nH]cnc2c1ncn2C1CCC(CO)O1 (stereo not drawn) [Didanosine] | 0.549 | 0.917 | 0.574 | 0.781
Cc1ccccc1-c1cc(N2CCN(C)CC2)ncc1N(C)C(=O)C(C)(C)c1cc(C(F)(F)F)cc(C(F)(F)F)c1 [Netupitant] | 1.12 | 0.713 | 1.24 | 0.734
COC(=O)NC(C(=O)N1CCCC1c1ncc(-c2ccc(-c3ccc(-c4cnc(C5CCCN5C(=O)C(NC(=O)OC)C(C)C)[nH]4)cc3)cc2)[nH]1)C(C)C.Cl.Cl (stereo not drawn) [Daclatasvir Digydrochloride] | 0.923 | 0.837 | 1.26 | 1.42
O=C(/C=C/c1ccccc1)OCc1ccccc1 [Benzyl cinnamate] | 0.768 | 0.675 | 0.764 | 0.542
COC1C(=O)C2(C)C(OC)CC3OCC3(OC(C)=O)C2C(OC(=O)c2ccccc2)C2(O)CC(OC(=O)C(O)C(NC(=O)OC(C)(C)C)c3ccccc3)C(C)=C1C2(C)C (stereo not drawn) [Cabazitaxel] | 1.9 | 3.75 | 1.26 | 5.08
CC1COc2c(N3CCN(C)CC3)c(F)cc3c(=O)c(C(=O)O)cn1c23 (stereo not drawn) [Levofloxacin] | 0.683 | 0.833 | 0.685 | 0.628
COC(=O)NC(C(=O)NC(Cc1ccccc1)C(O)CN(Cc1ccc(-c2ccccn2)cc1)NC(=O)C(NC(=O)OC)C(C)(C)C)C(C)(C)C.O=S(=O)(O)O (stereo not drawn) [Atazanavir Sulfate] | 0.688 | 0.88 | 0.645 | 0.799
Cc1ccccc1C(=O)Nc1ccc(C(=O)N2CCCC(N(C)C)c3ccccc32)cc1 (stereo not drawn) [Mozavaptan] | 0.836 | 1.13 | 0.78 | 1.08
CNCC(O)c1cccc(O)c1.Cl (stereo not drawn) [Phenylephrine HCl] | 0.768 | 0.884 | 0.935 | 0.819
[CH3][Co+][N]1/C2=C(/C)C3=N/C(=C\C4=NC(=C(/C)C5=NC(C(CC(N)=O)C5(C)CCC(=O)NCC(C)OP(=O)([O-])OC5C(CO)OC(n6cnc7cc(C)c(C)cc76)C5O)C1(C)C(C)(CC(N)=O)C2CCC(N)=O)/C(CCC(N)=O)C4(C)C)C(CCC(N)=O)C3(C)CC(N)=O (stereo not drawn) [Methylcobalamin] | 0.557 | 0.921 | 0.601 | 0.693
CN1C(CC(=O)c2ccccc2)CCCC1CC(O)c1ccccc1.Cl (stereo not drawn) [Lobeline hydrochloride] | 0.506 | 0.683 | 0.643 | 0.831
CCCCCC(O)/C=C/C1C(O)CC(=O)C1C/C=C\CCCC(=O)O (stereo not drawn) [Prostaglandin E2 (PGE2)] | 0.794 | 0.927 | 0.687 | 0.735
OCC1=CC(O)C2C=COC(OC3OC(CO)C(O)C(O)C3O)C12 (stereo not drawn) [Aucubin] | 0.812 | 0.59 | 0.881 | 0.501
CN1CCC(=C2c3ccccc3C=Cc3ccccc32)CC1.Cl [Cyproheptadine HCl] | 0.752 | 0.947 | 0.776 | 0.91
CCCC1CC(C(=O)NC(C(C)O)C2OC(SC)C(O)C(O)C2O)N(C)C1.Cl.O (stereo not drawn) [Lincomycin Hydrochloride Monohydrate] | 0.856 | 0.881 | 0.668 | 0.569
CC12CCC(C1)C(C)(C)C2=O (single isomer, unassigned; (-)) [(-)-Fenchone] | 0.622 | 0.486 | 0.612 | 0.525
O=C(O)c1ccc2nc(-c3cc(Cl)cc(Cl)c3)oc2c1 [Tafamidis] | 0.614 | 1.01 | 0.581 | 0.693
